± gives the standard deviation of the averaged measurements. Some of the results follow.
system: PfAP2-G AP2 domain (GST-tagged); assay: gcPBM binding intensity (ln(normalized median fluorescence intensity)); higher = stronger DNA binding
How it was run: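 An Agilent 4 × 180k array carrying primer-extended double-stranded 36-bp intergenic genomic probes and negative controls received GST-tagged P. falciparum DNA-binding domains expressed in E. coli, about 25 μg on average, for 1 h. The binding buffer contained 1× PBS, 1% milk, 0.2 mg/ml BSA, 0.5% salmon testes DNA and 0.03% Triton X-100. Binding intensity is the top Masliner-normalised natural-log median intensity across replicate spots of either probe orientation, read after Alexa488 anti-GST antibody staining and a 488 nm scan.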

In order of rising “gcPBM binding intensity (ln)” value:
1. AATAATAAACACAATCAAATAAAATATGAAATATAA [GTGCAC_negctrl_site307]  9.52 ± 0.24
2. ATAAAATGTATATGAATGCACTTGAAGTTTTTTTTT  9.55 ± 0.33
3. TTTATATTTTAAAAAATAATATTATGTATTTTTAAA [TGCATGCA_negctrl_site507]  9.57 ± 0.099
4. AAATGTTGAAATGATACACACATATAAATATAAATA [CACACA_site7229]  9.75 ± 0.38
5. AAAAAATAAAAGGAAAAAAAAAAAAAAAAAAAAAAT [CACACA_negctrl_site635]  9.8 ± 0.11
6. TATATATATTTATACACACACATATATTTATATATT [CACACA_site484]  9.845 ± 0.035
7. TTACACATAAATACCATATAAATATAATGCATATCT [CACACA_negctrl_site1731]  9.895 ± 0.021
8. ATTCACTGGTATGCATGAAAAAAAATATTATTATAA [CACACA_negctrl_site702]  9.97 ± 0.28
9. TTATTTTTCTAAAAAGCATGCAAATAAAGATATGAA [TGCATGCA_site1032]  9.98 ± 0.18
10. CCCGAACAAACAAATAAACACACAAAAAAAAATATA [CACACA_site8540]  10 ± 0.28
11. ATAAAGAAAAGGAACACACAAATATGTAAATATGTA [CACACA_site6356]  10.06 ± 0.085
12. TTAGTGTATTAATTCTCACACACTAAGAAAAAAAAA [CACACA_site3878]  10.1 ± 0.33
13. ATTCAATATAAATACACACACACTTTTAATAATTAA [CACACA_site5963]  10.1 ± 0.26
14. AACACATACAAACACACACACAAAAAAAAAAAAAAA [CACACA_site393]  10.1 ± 0.62
15. TTTTTTTTTTTTGGTGCATGCACATTTTGTTTTTTT [TGCATGCA_site570]  10.1 ± 0.25
16. TTATAATCTTTTGGTTCTATAGAATATCAAAAAATA [CACACA_negctrl_site1149]  10.1 ± 0.31
17. TAAAATATTATCTACGCACACATTAAAATAAAAAAA [CACACA_site3709]  10.2 ± 0.28
18. AAAACATTATTCCATACACACCATACTTTTTAATAA [CACACA_site7326]  10.2 ± 0.16
19. TATTCTTACACGTTTGCACACTAAAATATATATATA [CACACA_site435]  10.2 ± 0.18
20. TATTTTTTCTTAAACACACACATATATATATATAAT [CACACA_site5567]  10.2 ± 0.15
21. TATGTAGATAAATAAGCACACACCAAACATATAAAA [CACACA_site1182]  10.31 ± 0.078
22. ATAAATCCATGGGTAGTGCGCATTTTTTTTTTTTTT [GTGCAC_site9732]  10.3 ± 0.18
23. TAGACTCCCAGACACACACACACACCCATATAATAT [CACACA_site593]  10.3 ± 0.24
24. TTTTTTGCTTGGGTGAGAAAAAATAAAATAAAGGAA [TGCATGCA_negctrl_site139]  10.3 ± 0.42
25. CATTTGCACACGCACACACACATAAAAAGAAAAATA [CACACA_site6297]  10.5 ± 0.46
26. TCTCCTTGTTCCTTTTTTTTAAAAAAAAACATTAAA [CACACA_negctrl_site679]  10.5 ± 0.41
27. TGAATACTTATGTTCGCACACATGCAAATTAAAAAA [CACACA_site4048]  10.5 ± 0.52
28. GTACTTATTAAATGTGCATGTTGATATATAAATGTA [TGCATGCA_site902]  10.6 ± 0.29
29. AAAAAAACGATCGATCGTACTTATATTTACACATTC [XGTACX_site2883]  10.8 ± 0.42
30. TTATGTGTATACTAAGAACACACAAGTTACTTGGTG [CACACA_site8467]  10.8 ± 0.16
31. ATTTATACAAAGCTTCGTACATAATGTATTCTTTTT [XGTACX_site2166]  10.8 ± 0.41
32. ATCAGTCGAGATGACAGTACACAGTAGCCAGGAAAT [XGTACX_site4932]  10.9 ± 0.52
33. ACATGGTGATAATACTGTACAAAAATAAATAAATAC [XGTACX_site897]  10.9 ± 0.41
34. TAATAATAATACCAGCGTACATTTTTCTTTCCTACG [XGTACX_site4056]  11 ± 0.67
35. TATTATTATTGTTGATGTACATTTAATATAATATAT [XGTACX_site4482]  11 ± 0.61
36. TTATTAAAAATGTATTGTACAAATTTATTAGTAAAT [XGTACX_site4799]  11 ± 0.52
37. TTTTATAGTCTTATGGGTACAAAATATTAACCCACG [XGTACX_site1131]  11.1 ± 0.63
38. ATTTAATATATTTATTGTACATATAAAATAAAAGAA [XGTACX_site2413]  11.2 ± 0.86
39. TATATGTGACATGAATGTACCCAAATTATATAAGAA [XGTACX_site3937]  11.2 ± 0.88
40. ATTATATATGTATGGTGTACTAAGAATATTTTTTTA [XGTACX_site1950]  11.2 ± 0.79
41. TATATATATTTAAAAAGTACAAAAAAAAAAAATGAA [XGTACX_site374]  11.3 ± 0.65
42. TATTGAAAAAATAAAAGTACAAACTCTTATAATATG [XGTACX_site8196]  11.3 ± 0.79
43. ATATATATTTTATTATGTACTTACTTCTTTTCTTAA [XGTACX_site6163]  11.3 ± 0.88
44. ATATACATAAAAATATGTACATATAAAATATATACA [XGTACX_site2394]  11.3 ± 0.96
45. CCCTGAGCACTTTCGTGTACTAATAGTAACAATAAT [XGTACX_site1418]  11.4 ± 0.86
46. CATAGGAACATAAGTTGTACGCTATACATACAACAT [XGTACX_site1054]  11.4 ± 0.8
47. TGAAAATTAATAAAAAGTACATAGTCAGATTTGTGA [XGTACX_site2450]  11.4 ± 0.69
48. TTCCTTAATCAATATTGTACTTTTTATAAATTTAGT [XGTACX_site3678]  11.4 ± 0.85
49. CTAAACAAAAAATAATGTACACATACATAAAAAATA [XGTACX_site1808]  11.4 ± 0.76
50. TCTGTGTTTTTGGGTACACACAAATAGCTTGTATAT [CACACA_site4002]  11.5 ± 0.92
51. ACATTCAATAAACGTCGTACACTTTCCTTTTTATGA [XGTACX_site3274]  11.5 ± 0.9
52. TTGTTTGGTTATAATTGTACGCATGTAATTACATAT [XGTACX_site4972]  11.5 ± 0.91
53. TTTAATATATATATGTGTACATATAAATTATATATA [XGTACX_site8511]  11.5 ± 0.99
54. AAACAAATGTATATGTGTACTTATTTTTTTGTATGT [XGTACX_site7134]  11.6 ± 1
55. ATATAATAAACGTGTACACAATTAAATTATTATATA [CACACA_site5017]  11.7 ± 1.1
56. ATTTTGATAACCGTACGTACATATATATATATATAT [XGTACX_site6605]  11.8 ± 0.85

— the supplement of paper PMC11417369
